Assay results reported in PubChem BioAssay AID1159614 (National Center for Advancing Translational Sciences (NCATS), 2016).
The whole screen tested about 45,000 compounds, of which about 65 (0.1%) were called active. Calls follow the shape of the dose curve; as a rule, active = well fitted activation curve with a large enough effect; inconclusive = small, poorly fitted or top-dose-only effect; inactive = no such curve, though single readings can be large or run the other way. The list shows a part of the results.

biological target: Galactocerebrosidase (Homo sapiens) (UniProt P54803); assay: A Novel Cell-Based Assay to Identify Small Molecules for B -Galactocerebrosidase; details: 145M-Twi-hGALC-G270D cells (Twitcher mouse brain line with human GALC G270D), HMU-beta-Gal fluorescence, 48 h; series mostly up to 57.5 µM; activation: at the top concentration; also: 0% is about no effect; nearly all actives have a fitted effect of over 65% in size
How it was run: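 Brain-derived Twitcher mouse 145M-Twi cells stably expressing human GALC-G270D or wild-type GALC, treated live, then residual GALC activity read by fluorescence of HMU-b-Gal substrate (0.1 mM final) in citrate-phosphate buffer pH 5.2 with sodium taurocholate. Signal increase indicates enhancement.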

UniProt P54803, sequence (P54803 whole entry, looked up): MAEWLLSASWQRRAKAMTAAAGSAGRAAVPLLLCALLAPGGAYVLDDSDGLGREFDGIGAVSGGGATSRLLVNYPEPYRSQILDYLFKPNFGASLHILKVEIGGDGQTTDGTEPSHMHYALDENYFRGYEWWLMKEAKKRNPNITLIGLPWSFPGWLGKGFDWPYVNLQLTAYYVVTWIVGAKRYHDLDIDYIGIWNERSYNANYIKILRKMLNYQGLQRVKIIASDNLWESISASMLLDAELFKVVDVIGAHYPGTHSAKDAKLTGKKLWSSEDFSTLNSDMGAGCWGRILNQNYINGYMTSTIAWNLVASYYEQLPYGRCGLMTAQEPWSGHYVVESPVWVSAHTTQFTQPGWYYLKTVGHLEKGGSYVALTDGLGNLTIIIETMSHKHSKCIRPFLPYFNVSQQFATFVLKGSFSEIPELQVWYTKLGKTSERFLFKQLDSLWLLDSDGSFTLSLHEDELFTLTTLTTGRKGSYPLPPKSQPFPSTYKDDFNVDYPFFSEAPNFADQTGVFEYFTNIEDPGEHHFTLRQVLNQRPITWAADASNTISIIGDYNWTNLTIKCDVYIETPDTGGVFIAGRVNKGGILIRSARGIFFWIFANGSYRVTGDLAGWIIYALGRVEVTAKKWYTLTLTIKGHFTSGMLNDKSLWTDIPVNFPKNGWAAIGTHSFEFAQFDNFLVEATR

activation, inactive:
O=C(Cc1ccc(NC(=O)N2CCCCc3ccccc32)cc1)NCc1ccccc1 -7.89%
CCOc1ccc2nc(N3CCCC(C(=O)Nc4cccc(Cl)c4C)C3)sc2c1 (configuration not stated) -11.7%
CCc1cc2c(cc3c(=O)n(CC(=O)N4CCCCC4)ncn32)s1 -9.29%
Cc1ccc(Cl)cc1NC(=O)CN1C(=O)COc2ccc(S(=O)(=O)N3CCOCC3)cc21 -13.1%
COc1ccccc1CNC(=O)c1ccc(-c2nc(CS(=O)c3ccccc3)c(C)o2)cc1 (configuration not stated) -21.4%
CCCCn1cc(S(=O)(=O)c2ccc(F)cc2)c(=O)c2ccccc21 -7.5%
COc1cccc(CNC(=O)CN2C(=O)CSc3c2c(C)nn3-c2ccccc2)c1 -7.64%
Cc1ccc2[nH]c(CSc3nnc(COc4ccccc4C)n3C)cc(=O)c2c1 -2.51%
Cc1ccc(-n2c(=O)c3ccc(C(=O)NCc4ccccc4Cl)cc3n(CC(=O)Nc3cccc(F)c3)c2=O)cc1 -0.116%
CN(C)c1ccc(CN(CC2CCCO2)C(=O)c2ccc(Br)cc2)cc1 (configuration not stated) -9.3%
CCOc1ccc(N2C(=O)N(Cc3c(F)cccc3Cl)c3ccccc3S2(=O)=O)cc1 -10.8%
Cc1ccc2[nH]c3c(=O)n(CC(=O)N4CCN(c5cccc(C(F)(F)F)c5)CC4)ncc3c2c1 -8.03%
CCCCOc1ccc(NC(=O)Cn2nnnc2-c2ccccc2F)cc1 -6.54%
Cc1cc2c(cc1C)NC(CC(=O)Nc1ccccc1SC(F)(F)F)C(=O)N2 (configuration not stated) -7.85%
CC(C)NC(=O)c1ccc(C=O)cc1 -5.19%
O=C(COCc1cc(-c2cccs2)on1)Nc1ccc(OC(F)(F)F)cc1 -22.1%
COc1cc(OC)c(NC(=O)Cn2cnc3sc(C)c(S(=O)(=O)N4CCN(C)CC4)c3c2=O)cc1Cl -0.131%
Cc1ccc(S(=O)(=O)c2nc(-c3ccco3)oc2SCC(C)C)cc1 -6.93%
COc1ccc2ncc3c(-c4ccc(C)c(C)c4)nn(CC(=O)NC4CCCCC4)c3c2c1 -5.2%
CCc1ccc(NC(=O)c2nn(-c3ccc(C)cc3)c(=O)n(C)c2=O)cc1 -7.7%
CC(C)(C)OC(=O)N1CCC(c2c(C(=O)Nc3ccc4c(c3)OCCO4)cnn2-c2ccccc2)CC1 -10.5%
CCc1ccccc1NC(=O)CN1C(=O)c2cccnc2Oc2ccc(Cl)cc21 1.5%
CCOc1ccc(Br)cc1CNCCSc1nnnn1-c1ccccc1 -17.6%
COc1ccc(CNC(=O)c2cc3c(s2)-c2c(C)cccc2OC3)cc1 -13.5%
Cc1ccc(C)c(NC(=O)C(=O)NCCc2csc3nc(-c4ccccc4C)nn23)c1 -33.2%
CCOC(=O)c1oc2c(c1C)-c1nn(Cc3ccccc3Cl)cc1CC2 -7.03%
COC(=O)NCc1c(C)nn(-c2ccccc2)c1-n1cccc1 -9.29%
